# Data: the supplement of paper PMC9588766
# Structures can show the parent of a compound that is named as a salt. ± gives the standard deviation of the averaged measurements. In all, about 2,000 compounds were measured (“cell viability relative to DMSO control (compound alone)”: median about 0.98, lowest 2% from about 0.23 on). This is one part of the list.
# Test system: PDC-DUC18828
# Test: cell viability relative to DMSO control (compound alone) (fraction); PDC-DUC18828 is a patient-derived cholangiocarcinoma cell line; higher = less growth inhibition
# Settings: 1 µM; 72 h
# Description: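 Selleck Bioactive library screen in the patient-derived FGFR2-G3BP2 fusion-positive ICC cell line PDC-DUC18828 (500 cells/well). Each compound was tested at 1 uM alone, in triplicate, for 72 h. Viability was read by CellTiter-Glo and normalised to plate DMSO controls.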
row,SMILES,cell viability
1,O=P1(NCCCl)OCCCN1CCCl (configuration not stated) [Ifosfamide],0.976 ± 0.038
2,NC(=O)CN1CCCC1=O [Piracetam],0.962 ± 0.018
3,CN[C@@H]1C[C@H]2O[C@@](C)([C@@H]1OC)n1c3ccccc3c3c4c(c5c6ccccc6n2c5c31)C(=O)NC4 [Staurosporine],0.121 ± 0.0086
4,O=C(O[C@H]1C[N+]2(CCCOc3ccccc3)CCC1CC2)C(O)(c1cccs1)c1cccs1 [Aclidinium Bromide],1.03 ± 0.048
5,Cc1cc(SCc2sc(-c3ccc(C(F)(F)F)c(F)c3)nc2C)ccc1OCC(=O)O,1.04 ± 0.014
6,CC(C)(C)[C@]1(O)CC2OC(=O)CC23C(=O)OC2OC(=O)[C@H](O)C231 (some centres not stated) [Bilobalide],0.866 ± 0.014
7,CC[C@@H]1/C=C/C=C/C[C@H](C)[C@H](O)[C@](C)(O)C(=O)[C@H](C)[C@@H](O)[C@H](C)C(=O)[C@H](C)[C@@H](O)[C@H](C)/C=C/C(=O)O[C@H]2[C@@H](C)[C@@H](CC1)O[C@@]1(CC[C@@H](C)[C@@H](C[C@H](C)O)O1)[C@@H]2C [Oligomycin A],0.74 ± 0.047
8,O=C(Oc1ccc([N+](=O)[O-])cc1)N1CCC(C(O)(c2ccc3c(c2)OCO3)c2ccc3c(c2)OCO3)CC1,1 ± 0.063
9,Cc1cccc(C)c1NC1=NCCCS1 [Xylazine HCl],1.05 ± 0.018
10,O=C1CCC[C@@H]2[C@H]3CCCN4CCC[C@@H](CN12)[C@@H]34 [(+)-Matrine],1.01 ± 0.031
11,Cc1c(Cl)c(OCC(=O)N2CCN(C)CC2)nc2sc(C(=O)NC3CC3)c(N)c12,1 ± 0.084
12,C[C@@H]1CC[C@H]2[C@@H](C)C(=O)O[C@@H]3O[C@@]4(C)CC[C@@H]1[C@]32OO4 [Artemisinin],0.974 ± 0.072
13,COc1ccc2c(c1)/C(=C/c1cnc[nH]1)C(=O)N2,0.933 ± 0.053
14,COc1ccc(C[C@H]2NC[C@H](O)[C@H]2OC(C)=O)cc1 [Anisomycin],0.234 ± 0.0077
15,NCCc1c[nH]c2ccc(O)cc12 [Serotonin HCl],0.967 ± 0.03
16,CCC(COC(=O)c1cc(OC)c(OC)c(OC)c1)(c1ccccc1)N(C)C (configuration not stated) [Trimebutine],1.04 ± 0.036
17,C/C=C(\C)C(=O)N[C@@H](c1ccccc1)[C@@H](O)C(=O)O[C@H]1C[C@@]2(O)[C@@H](OC(=O)c3ccccc3)[C@@H]3[C@]4(OC(C)=O)CO[C@@H]4C[C@H](O)[C@@]3(C)C(=O)[C@H](OC(C)=O)C(=C1C)C2(C)C [Cephalomannine],0.24 ± 0.011
18,C[C@@]12N[C@@H](Cc3ccccc31)c1ccccc12 [(-)-MK 801 Maleate],1.04 ± 0.067
19,NCC(=O)O.[C-]#[O+].[C-]#[O+].[C-]#[O+].[Cl][Ru],0.981 ± 0.028
20,C#C[C@]1(O)C=C[C@H]2[C@@H]3CCC4=CC(=O)CC[C@@H]4[C@H]3CC[C@@]21CC [Gestodene],0.983 ± 0.016
21,Cc1cccc([C@H](C)c2c[nH]cn2)c1C [Dexmedetomidine],0.973 ± 0.037
22,CC(=O)Nc1ccc(OC[C@](C)(O)C(=O)Nc2ccc([N+](=O)[O-])c(C(F)(F)F)c2)cc1 [Andarine],0.891 ± 0.044
23,C[C@](O)(COc1ccc(C#N)cc1)C(=O)Nc1ccc(C#N)c(C(F)(F)F)c1,1.05 ± 0.022
24,C[C@]12N[C@H](Cc3ccccc31)c1ccccc12 [MK-801 (Dizocilpine)],0.971 ± 0.031
25,C[C@]12CC[C@H]3[C@@H](CC[C@@]45O[C@@H]4C(O)=C(C#N)C[C@]35C)[C@@H]1CC[C@@H]2O [Trilostane],1.07 ± 0.026
26,CC(C)N(CCNC(=O)CN1CCCC1=O)C(C)C [Pramiracetam],0.946 ± 0.063

row,SMILES,cell viability
1,CNCC(=O)c1ccc(O)c(O)c1 [Adrenalone HCl],0.971 ± 0.024
2,COC(=O)C1=CCCN(C)C1 [Arecoline],1.05 ± 0.064
3,CCC1(c2ccc(N)cc2)CCC(=O)NC1=O (configuration not stated) [Aminoglutethimide],1.02 ± 0.013
4,CCN(C)C(=O)Oc1cccc([C@H](C)N(C)C)c1 [Rivastigmine Tartrate],1.07 ± 0.019
5,CN(C)C(=O)Oc1cc(OC(=O)N(C)C)cc(C(O)CNC(C)(C)C)c1 (configuration not stated) [Bambuterol HCl],1.01 ± 0.04
6,C[N+]1(C)[C@@H]2C[C@@H](OC(=O)[C@H](CO)c3ccccc3)C[C@H]1[C@@H]1O[C@@H]12 [Methscopolamine],0.996 ± 0.022
7,C[C@]12CC[C@H](O)C[C@@H]1CC[C@@H]1[C@@H]2CC[C@]2(C)C(=O)CC[C@@H]12 [Epiandrosterone],0.985 ± 0.042
8,"NCC(O)c1ccc(O)cc1 (racemic) [(+,-)-Octopamine HCl]",1.06 ± 0.071
9,C[C@@H]1O[C@@H](O[C@H]2C[C@@H](O)[C@]3(CO)[C@H]4[C@H](O)C[C@]5(C)[C@@H](C6=CC(=O)OC6)CC[C@]5(O)[C@@H]4CC[C@]3(O)C2)[C@H](O)[C@H](O)[C@H]1O [Ouabain],0.127 ± 0.0066
10,CN(C)Cc1c[nH]c2ccccc12 [Gramine],0.919 ± 0.044
11,O=C(O)CCCc1ccc(N(CCCl)CCCl)cc1 [Chloroambucil],0.878 ± 0.054
12,CC[C@@H](C(N)=O)N1CCCC1=O [Levetiracetam],0.932 ± 0.011
13,O=C(O[C@H]1C[C@H]2CC[C@@H](C1)[N+]21CCCC1)C(O)(c1ccccc1)c1ccccc1 [Trospium chloride],0.8822 ± 0.0019
14,COc1ccc(C(=O)N2CCCC2=O)cc1 [Aniracetam],0.937 ± 0.052
15,COc1cc([C@@H]2c3cc4c(cc3[C@H](O)[C@H]3COC(=O)[C@@H]23)OCO4)cc(OC)c1OC [Picropodophyllin (PPP)],0.499 ± 0.015
16,C1=C2CCCN[C@H]2[C@@H]2C[C@H]1[C@H]1CCCCN1C2 [Aloperine],0.836 ± 0.079
17,CN1CCC(c2c[nH]c3ccc(O)cc23)CC1,0.962 ± 0.024
18,NC(=O)CN1CC(O)CC1=O (configuration not stated) [Oxiracetam],0.965 ± 0.083
19,CC[C@@]1(O)C(=O)OCc2c1cc1n(c2=O)Cc2cc3ccccc3nc2-1 [Camptothecin],0.182 ± 0.014
20,CN1c2ccccc2C(NCCCCCCC(=O)O)c2ccc(Cl)cc2S1(=O)=O (configuration not stated) [Tianeptine sodium],0.968 ± 0.011
21,CC(C)=CCC[C@]1(C)C=Cc2c(O)c3c(c(CC=C(C)C)c2O1)O[C@]12C(=C[C@@H]4C[C@H]1C(C)(C)O[C@@]2(C/C=C(/C)C(=O)O)C4=O)C3=O [Gambogic Acid],0.0678 ± 0.029
22,CCNC(=O)C[C@@H]1N=C(c2ccc(Cl)cc2)c2cc(OC)ccc2-n2c(C)nnc21,0.882 ± 0.054
23,C[N+](C)(C)CCCCCCCCCC[N+](C)(C)C [Decamethonium Bromide],0.997 ± 0.067
24,O=C(O)CNC(=O)c1c(O)c2ccccc2n(Cc2ccccc2)c1=O,1.02 ± 0.047
25,CCCN1C[C@H](CSC)C[C@@H]2c3cccc4[nH]cc(c34)C[C@H]21 [Pergolide mesylate],0.982 ± 0.04
26,CC(=O)Nc1ccc(Cc2ccc(NC(C)=O)cc2)cc1,1.06 ± 0.072

row,SMILES,cell viability
1,COc1cc(-n2c(=S)[nH]c3ccccc3c2=O)c(Cl)cc1Cl [Mdivi-1],0.995 ± 0.022
2,CC1=C(O)C(=O)C=C2C1=CC=C1[C@@]2(C)CC[C@@]2(C)[C@@H]3C[C@](C)(C(=O)O)CC[C@]3(C)CC[C@]12C [Celastrol],0.0883 ± 0.016
3,C[C@H]1CCC/C=C/[C@@H]2C[C@H](O)C[C@H]2[C@H](O)/C=C/C(=O)O1 [Brefeldin A],0.0224 ± 0.00048
4,Cc1cc(O)ccc1Cl [Chlorocresol],1.01 ± 0.017
5,c1cc2c(cc1[C@H]1OC[C@H]3[C@@H]1CO[C@@H]3c1ccc3c(c1)OCO3)OCO2 [Sesamin],0.969 ± 0.055
6,NCCc1ccc(S(=O)(=O)F)cc1,0.974 ± 0.08
7,CN1[C@@H]2CC[C@H]1C[C@@H](OC(=O)[C@H](CO)c1ccccc1)C2 [Hyoscyamine],0.93 ± 0.013
8,Nc1nc(N)nc(NC2CC2)n1 [Cyromazine],1.09 ± 0.043
9,Fc1cc(F)c2c(c1)[C@H]1C=CC[C@H]1C(c1cccnc1)N2 (some centres not stated) [Golgicide A],1.06 ± 0.034
10,COC[C@H]1OC(=O)c2coc3c2[C@@]1(C)C1=C(C3=O)[C@@H]2CCC(=O)[C@@]2(C)C[C@H]1OC(C)=O [Wortmannin],0.8 ± 0.028
11,C=C[C@H]1CN2CC[C@H]1C[C@H]2[C@H](O)c1ccnc2ccccc12 [Cinchonidine],1.02 ± 0.13
12,Cc1cccc(C(C)c2c[nH]cn2)c1C (configuration not stated) [Medetomidine HCl],0.923 ± 0.085
13,C=CC[C@]1(O)CC[C@H]2[C@@H]3CCC4=CC(=O)CCC4=C3C=C[C@@]21C [Altrenogest],0.96 ± 0.039
14,"C/C(=C\c1csc(C)n1)[C@@H]1C[C@@H]2O[C@]2(C)CCC[C@H](C)[C@H](O)[C@@H](C)C(=O)C(C)(C)[C@@H](O)CC(=O)O1 [Epothilone B (EPO906, Patupilone)]",0.265 ± 0.021
15,O=c1[nH]c2ccccc2n1CCCN1CCC(n2c(=O)[nH]c3cc(Cl)ccc32)CC1 [Domperidone],0.905 ± 0.043
16,CN1[C@@H]2CC(O)C[C@H]1[C@@H]1O[C@@H]12 (some centres not stated) [Scopine],0.99 ± 0.04
17,O=S(=O)(CC1CS1)c1ccc(Oc2ccccc2)cc1 (configuration not stated),1.02 ± 0.06
18,CC1(C)CC(O)CC(C)(C)N1[O] [Tempol],1.03 ± 0.048
19,Cn1c(CCCC(=O)O)nc2cc(N(CCCl)CCCl)ccc21 [Bendamustine HCl],0.986 ± 0.069
20,O=C1CC[C@@]2(O)[C@H]3Cc4ccc(O)c5c4[C@@]2(CCN3CC2CC2)[C@H]1O5 [Naltrexone HCl],1.03 ± 0.054
21,CC(C)[C@]12O[C@H]1[C@@H]1O[C@]13[C@]1(O[C@H]1C[C@H]1C4=C(CC[C@@]13C)C(=O)OC4)[C@@H]2O [Triptolide (PG490)],0.238 ± 0.0074
22,CC(C)(C)c1cc(C=C(C#N)C#N)cc(Br)c1O,0.985 ± 0.072
23,CC(NC(C)(C)C)C(=O)c1cccc(Cl)c1 (configuration not stated) [Amfebutamone HCl],0.902 ± 0.019
24,CN1[C@@H]2C[C@@H](OC(=O)[C@H](CO)c3ccccc3)C[C@H]1[C@@H]1O[C@@H]12 [Scopolamine HBr],1.05 ± 0.048
25,C/C(=C\c1csc(C)n1)[C@@H]1C[C@@H]2O[C@@H]2CCC[C@H](C)[C@H](O)[C@@H](C)C(=O)C(C)(C)[C@@H](O)CC(=O)O1 [Epothilone A],0.244 ± 0.018
